PubChem BioAssay AID485294 (National Center for Advancing Translational Sciences (NCATS), 2010)
The whole screen tested about 370,000 compounds, of which about 150 (0.041%) were called active. Inconclusive results, whose numbers are uncertain, are shown with a selection of clear calls. The call rests on the fitted dose curve; in most records, active means well fitted inhibition curve with a large enough effect; inconclusive means small, poorly fitted or top-dose-only effect; inactive means flat fitted curve, though single readings scatter. Potencies of inconclusive entries are left out as doubtful fits.

Target: Beta-lactamase (Escherichia coli (strain K12)) (UniProt P00811)
Chain of UniProt P00811 (P00811 whole entry, looked up): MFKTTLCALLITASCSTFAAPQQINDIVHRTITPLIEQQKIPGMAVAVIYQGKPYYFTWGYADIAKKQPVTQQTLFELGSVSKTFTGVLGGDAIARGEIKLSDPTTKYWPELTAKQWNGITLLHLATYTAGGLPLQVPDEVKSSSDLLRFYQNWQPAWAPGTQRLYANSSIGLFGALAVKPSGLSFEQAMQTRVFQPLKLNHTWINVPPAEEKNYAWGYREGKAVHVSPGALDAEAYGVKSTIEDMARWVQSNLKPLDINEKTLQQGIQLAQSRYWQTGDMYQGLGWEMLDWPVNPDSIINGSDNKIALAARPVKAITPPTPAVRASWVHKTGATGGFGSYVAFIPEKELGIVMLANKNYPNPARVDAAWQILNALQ
Assay: qHTS Inhibitors of AmpC Beta-Lactamase (assay with detergent); further: nearly all actives have a fitted effect of over 25% in size;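 on activity change, negative = inhibition: 0% = no-compound wells and -100% = no-enzyme wells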
Conditions: AmpC hydrolysis of nitrocefin, absorbance 480 nm, 0.01% Triton; activity change, negative = inhibition: at 114 µM (top of the series)
In short: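 20 mM phosphate pH 7.0 + 0.01% (detergent screen) or 0.0001% Triton X-100; 5.3 nM AmpC reagent; cpd preinc 15 min RT; nitrocefin (800 uM stock) to start; A480 q20 s × 4 min; Activity was normalised to no-enzyme and no-compound control wells.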
Potency means the concentration at half of the fitted maximal effect; tags describe the fitted curve by direction and shape.

Which “activity change, negative = inhibition” value does the source give for `Cc1ccccc1-c1noc(CSc2nc3ccccc3[nH]2)n1` here?
The value was inactive: -1.75%.

`O=c1c2ccccc2nnn1CSc1nnc(-c2cccc(S(=O)(=O)N3CCCCC3)c2)o1` was tested. Which Potency did it give?
Its Potency is inconclusive [inhibitor, full curve].

Which “activity change, negative = inhibition” value does the source give for `O=C(Nc1cccc2ccccc12)c1ccccc1Cl` here?
The value was inactive: -4.79%.

For `S=c1[nH]cc(Cc2ccccc2)s1`, which Potency is on record?
The Potency was inconclusive [inhibitor, full curve].

For `CCOC(=O)CN1C(=O)C(O)(c2c(C)[nH]c3ccccc23)c2ccccc21` (centres undefined), which Potency is on record?
The Potency was inconclusive [inhibitor, full curve].

How did the Potency turn out when `CCN1C(=O)/C(=C\N2CCN(c3ccc(F)cc3)CC2)SC1=S` was run?
The Potency was inconclusive [inhibitor, single point].

With `CCCCCn1c(CCNC(=O)c2cccs2)nc2ccccc21` as the molecule, how does the “activity change, negative = inhibition” value read?
Its value is inactive: 0.843%.

Which Potency does the source give for `Cc1ccc(S(=O)(=O)Nc2ccccc2C(=O)Nc2nc(-c3ccc(F)cc3)cs2)cc1` here?
The Potency was inconclusive [inhibitor, full curve].

For `O=C(NCc1n[nH]c(=S)n1-c1cccc(Cl)c1)c1cccs1`, which Potency is on record?
Its Potency is inconclusive [inhibitor, partial curve].

Which “activity change, negative = inhibition” value does the source give for `CCc1ccc(-n2c(=O)c3c4c(sc3n(Cc3ccccc3C#N)c2=O)CCCC4)cc1` here?
The value was inactive: 14.8%.

Which “activity change, negative = inhibition” value does the source give for `COc1ccc(C(C#N)N2CCC(c3ccccc3)=N2)cc1` (centres undefined) here?
Its value is inactive: -2.35%.

For `O=C(CCl)Nc1cccc(Oc2cnccn2)c1`, which Potency is on record?
Its Potency is inconclusive [inhibitor, partial curve, poor fit].

How did the Potency turn out when `CCc1ccc(-c2csc3nc[nH]c(=O)c23)cc1` was run?
The Potency was inconclusive [inhibitor, full curve, poor fit].

How did the Potency turn out when `COc1ccc(NC(=O)Nc2ccc3nccnc3c2)cc1` was run?
Its Potency is inconclusive [inhibitor, partial curve, poor fit].

How did the Potency turn out when `C=CCOc1ccccc1CNn1nnnc1N` was run?
Its Potency is inconclusive [inhibitor, full curve].

`Cc1nc(CS(=O)c2ccc(Cl)cc2)cc(N2CCOCC2)n1` (centres undefined) was tested. Which Potency did it give?
The Potency was inconclusive [inhibitor, partial curve, poor fit].

With `O=C(CN1C(=O)/C(=C2\SC(=S)N(C3CCS(=O)(=O)C3)C2=O)c2ccccc21)Nc1ccc(F)cc1` (centres undefined) as the molecule, how does the “activity change, negative = inhibition” value read?
Its value is inactive: 0.524%.

With `CN(C)S(=O)(=O)c1ccc(NCC2COc3ccccc3O2)c([N+](=O)[O-])c1` (centres undefined) as the molecule, how does the Potency read?
The Potency was inconclusive [inhibitor, partial curve, poor fit].

How did the Potency turn out when `N#CCSc1nnc(C2CCCCC2)n1-c1ccccc1` was run?
Its Potency is inconclusive [inhibitor, full curve, poor fit].

With `Cc1ccc(N/C(CSC(N)=O)=N\S(=O)(=O)c2ccc(C)cc2)cc1` as the molecule, how does the “activity change, negative = inhibition” value read?
The value was inactive: -7.75%.

Which Potency does the source give for `Cc1cc(C)nc(SCC(=O)NC2=NC(=O)C(C)S2)n1` (centres undefined) here?
The Potency was inconclusive [inhibitor, full curve].

With `COc1ccccc1NC(=S)NC(=O)/C=C/c1ccco1` as the molecule, how does the “activity change, negative = inhibition” value read?
The value was inactive: -11.8%.

Which Potency does the source give for `CSCC[C@H](NC(=O)[C@H](Cc1ccccc1)n1c(=O)[nH]c2ccccc2c1=O)C(=O)N[C@@H](Cc1ccccc1)C(=O)O` here?
Its Potency is inconclusive [inhibitor, full curve, poor fit].

With `CC[n+]1c(/C=C(/C)SC)sc2ccccc21` as the molecule, how does the Potency read?
The Potency was inconclusive [inhibitor, full curve, poor fit].

For `CCOc1cc(/C=C2\CCC/C(=C\c3cc(Cl)c(O)c(OCC)c3)C2=O)cc(Cl)c1O`, which Potency is on record?
The Potency was inconclusive [inhibitor, partial curve, poor fit].

Which “activity change, negative = inhibition” value does the source give for `O=C(Nc1ccc(CN2CCOCC2)cc1)c1ccc(Br)cc1` here?
The value was inactive: 1.77%.

`CCCS(=O)(=O)c1c(S(=O)(=O)CCC)c2c(C)cccn2c1C(=O)OC` was tested. Which Potency did it give?
The Potency was inconclusive [inhibitor, full curve, poor fit].

With `Cc1cccc(-n2c(SCN3C(=O)c4ccccc4C3=O)nc3ccccc3c2=O)c1` as the molecule, how does the Potency read?
Its Potency is inconclusive [inhibitor, partial curve, poor fit].

For `CCOC(=O)c1ccc(CC(=O)c2oc3cc(O)ccc3c2C)o1`, which Potency is on record?
The Potency was inconclusive [inhibitor, full curve, poor fit].

Which Potency does the source give for `O=C(Nc1ccccc1)OCC1CCCN2CCCCC12` (centres undefined) here?
Its Potency is inconclusive [inhibitor, single point].

How did the Potency turn out when `O=C(Nc1ccccc1-c1nnc(SCc2ccc(Cl)cc2Cl)o1)c1ccccc1` was run?
Its Potency is inconclusive [inhibitor, partial curve, poor fit].

How did the Potency turn out when `COc1ccc(CCNC(=O)CCn2c(=O)oc3ccccc32)cc1OC` was run?
Its Potency is inconclusive [inhibitor, full curve].

For `Cc1noc(C)c1C(=O)OCC(=O)c1c[nH]c2ccccc12`, which Potency is on record?
The Potency was inconclusive [inhibitor, full curve, poor fit].

For `COc1ccc(OC)c(C2C(C#N)=C(N)N(N(C)C)C3=C2C(=O)CCC3)c1` (centres undefined), which “activity change, negative = inhibition” value is on record?
Its value is inactive: -0.227%.

With `OCCNCCCCCOc1ccc(F)cc1` as the molecule, how does the Potency read?
Its Potency is inconclusive [inhibitor, full curve, poor fit].

`O=S(=O)(c1ccccc1)[C@@]1(c2ccccc2)C[C@@H]2ON=C(c3cccc(Br)c3)[C@@H]2C1` was tested. Which “activity change, negative = inhibition” value did it give?
The value was inactive: 1.2%.

Which “activity change, negative = inhibition” value does the source give for `Cc1ccc(CNc2ccc3c(c2)ncn3C(C)C)cc1` here?
Its value is inactive: -2.9%.

How did the “activity change, negative = inhibition” value turn out when `Cc1nn(-c2ccccc2)c(N)c1N=Nc1cccc(S(=O)(=O)N2CCOCC2)c1` was run?
Its value is inactive: -8.39%.

For `COC(=O)c1ccc(NC(=O)CCN2CCN(Cc3ccccc3)CC2)cc1`, which Potency is on record?
Its Potency is inconclusive [inhibitor, partial curve, poor fit].

Which Potency does the source give for `OCCN(Cc1ccccc1)Cc1ccc(F)c(F)c1` here?
The Potency was inconclusive [inhibitor, full curve].

How did the Potency turn out when `CCn1c(-c2cccnc2Cl)nc2cc(Cl)c(Cl)cc21` was run?
The Potency was inconclusive [inhibitor, single point].

With `CS(=O)(=O)c1cccc(C(=O)Nc2cccc(S(=O)(=O)N3CCCC3)c2)c1` as the molecule, how does the “activity change, negative = inhibition” value read?
Its value is inactive: -12.6%.

For `Nn1c(Cc2cccc3ccccc23)nnc1SCC(=O)NCC1CCCO1` (centres undefined), which Potency is on record?
Its Potency is inconclusive [inhibitor, partial curve, poor fit].

`C=CCN=C1SCC(=O)N1S(=O)(=O)c1ccc(C)cc1` was tested. Which Potency did it give?
Its Potency is inconclusive [inhibitor, partial curve].

For `C=CCn1c(SCC(=O)c2ccc(OC)cc2)nnc1-c1ccc2c(c1)OCO2`, which Potency is on record?
The Potency was inconclusive [inhibitor, partial curve, poor fit].

With `Cc1ccc(C(=O)c2cn(Cc3cccc(Cl)c3)c3nc(C)ccc3c2=O)cc1` as the molecule, how does the “activity change, negative = inhibition” value read?
The value was inactive: -2.44%.

For `c1ccc(Nc2cc(Nc3ccccc3)[nH]n2)cc1`, which Potency is on record?
The Potency was inconclusive [inhibitor, full curve, poor fit].

`CN(C)S(=O)(=O)c1cccc(-c2nnc(SCC(=O)NCCCCCC(=O)O)n2-c2ccc(F)cc2)c1` was tested. Which “activity change, negative = inhibition” value did it give?
Its value is inactive: 0.4%.

`CC(=O)Cn1ncc(N2CCOCC2)c(Cl)c1=O` was tested. Which “activity change, negative = inhibition” value did it give?
Its value is inactive: 2.47%.

Which “activity change, negative = inhibition” value does the source give for `Cc1nn(C)c(C)c1S(=O)(=O)N(CC(=O)NCCc1ccccc1)c1ccc(C(C)C)cc1` here?
Its value is inactive: 16%.

With `O=C(NC1CCCN(CCc2ccccc2)C1)c1c(F)cccc1F` (centres undefined) as the molecule, how does the Potency read?
The Potency was inconclusive [inhibitor, partial curve, poor fit].

For `COCCc1nc2ccc(C(=O)N3CCCC(CCCO)C3)cc2o1` (centres undefined), which “activity change, negative = inhibition” value is on record?
Its value is inactive: 3.52%.

Which Potency does the source give for `COc1cccc(NC(=O)CSc2nc3ccccc3nc2N2CCCC2)c1` here?
Its Potency is inconclusive [inhibitor, partial curve, poor fit].

For `CCN(CC)S(=O)(=O)c1ccc(C(=O)Nc2cc(C)cc(C)c2)cc1`, which “activity change, negative = inhibition” value is on record?
The value was inactive: 2.49%.

How did the Potency turn out when `C=CCOc1ccccc1/C=N/n1nnnc1N` was run?
The Potency was inconclusive [inhibitor, single point].

For `COc1cc(C)nc(N(Cc2ccccc2)S(=O)(=O)c2ccc(C)cc2)n1`, which Potency is on record?
The Potency was inconclusive [inhibitor, partial curve].

With `CCN1c2ccccc2-c2nc(SCC(=O)Nc3cccc(C)c3C)ncc2S1(=O)=O` as the molecule, how does the “activity change, negative = inhibition” value read?
The value was inactive: 0.108%.

How did the “activity change, negative = inhibition” value turn out when `COc1ccc(/C=C2\SC(=O)N(CCNC(=O)C3CCN(S(=O)(=O)c4cccs4)CC3)C2=O)cc1` was run?
Its value is inactive: -18.1%.

For `O=C(Nc1nc2ccc(F)cc2s1)c1ccc(N2CCCC2=O)cc1`, which Potency is on record?
Its Potency is inconclusive [inhibitor, partial curve, poor fit].

For `CC1=C(c2ccc(Cl)cc2)[N+](=O)C(C)(C)N1[O-]`, which Potency is on record?
The Potency was inconclusive [inhibitor, partial curve, poor fit].

For `COc1cc(NC(=O)COc2cc(O)c3c(c2)OC(C)(C)CC3=O)cc(OC)c1`, which Potency is on record?
The Potency was inconclusive [inhibitor, partial curve, poor fit].

Which “activity change, negative = inhibition” value does the source give for `Cc1occc1-c1nnc(SCC(=O)c2ccc(F)cc2)o1` here?
Its value is inactive: 0.541%.

With `Cc1cc(C)nc(N2CCC(C(=O)O)CC2)n1` as the molecule, how does the Potency read?
The Potency was inconclusive [inhibitor, full curve, poor fit].

With `CCC1CN(C(=O)Nc2ccccc2F)c2cc(C)ccc2O1` (centres undefined) as the molecule, how does the “activity change, negative = inhibition” value read?
The value was inactive: 12.2%.

How did the Potency turn out when `Cc1ccc(S(=O)(=O)N2CC(O)C2)cc1` was run?
The Potency was inconclusive [inhibitor, partial curve].

How did the Potency turn out when `COc1ccc(N(C(=O)Cc2cccs2)C2C=CS(=O)(=O)C2)cc1` (centres undefined) was run?
Its Potency is inconclusive [inhibitor, partial curve].

How did the Potency turn out when `CCn1c(NC(=O)c2ccccc2F)c(-c2cccs2)c(=O)c2ccccc21` was run?
Its Potency is inconclusive [inhibitor, full curve, poor fit].

Which Potency does the source give for `CC(=O)c1cccc(S(=O)(=O)Nc2cccc(S(=O)(=O)NC3=NCCC3)c2)c1` here?
Its Potency is inconclusive [inhibitor, full curve, poor fit].

Which Potency does the source give for `CSc1ccc(Cn2nnc(C(=O)Nc3ccc(C)c(C)c3)c2N)cc1` here?
The Potency was inconclusive [inhibitor, partial curve].
